Laboratory results taken from PubChem BioAssay AID1346428 (National Center for Advancing Translational Sciences (NCATS), 2018).
About 1,200 (2.5%) of roughly 48,000 compounds were called active. Inconclusive results (about 2%) are left out.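 How the source made its calls: active means activation of at least 60% and not above a set upper limit (about 1 call in 100 departs from these limits); inconclusive means activation of 40% to 60%, or above that upper limit; inactive means activation under 40%.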 The list shows a part of the results.

What follows are compounds tested against Probable G-protein coupled receptor 32 (Homo sapiens) (UniProt O75388) (assay: qHTS for Agonists of Human Resolvin D1 Receptor DRV1). Conditions: CHO-K1 GPR32 beta-arrestin PathHunter luminescence, 90 min; at 76.9 µM; stronger effect = higher value; zero percent set by DMSO-only wells.
Summary of the method: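 Agonism was scored by beta-Gal fragment complementation (chemiluminescent read, 1 h detection at ambient temperature) reporting beta-arrestin binding to GPR32 in engineered CHO-K1 cells. Compound treatment lasted 90 min at 37 C, normalized to a DMSO basal control.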
Further: 0% is about no effect.

Chain of UniProt O75388 (O75388 whole entry, looked up, the tested form may be a part): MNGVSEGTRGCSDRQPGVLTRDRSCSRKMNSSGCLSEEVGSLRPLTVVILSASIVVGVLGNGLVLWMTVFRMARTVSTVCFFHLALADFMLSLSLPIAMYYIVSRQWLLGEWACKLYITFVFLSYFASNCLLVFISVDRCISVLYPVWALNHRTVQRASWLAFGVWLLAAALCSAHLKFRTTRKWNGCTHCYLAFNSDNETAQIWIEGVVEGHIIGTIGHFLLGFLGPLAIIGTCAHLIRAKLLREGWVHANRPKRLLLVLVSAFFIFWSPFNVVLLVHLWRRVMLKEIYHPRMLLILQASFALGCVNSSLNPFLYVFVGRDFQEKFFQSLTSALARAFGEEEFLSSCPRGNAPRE

| Compound | activation |
| --- | --- |
| Cc1cc(Nc2ccccc2C)n2nc(Cc3ccc(Cl)cc3)nc2n1 | inactive: -28.7% |
| Cc1ccc(C(C)C)c(O)c1 | inactive: -0.226% |
| CCOC(=O)c1c(C)n(-c2ccccc2)c2ccc(OC(=O)COc3ccc(Cl)cc3)cc12 | inactive: -4.77% |
| Cc1ccccc1-c1nc(CN2CCC(C(=O)NCc3ccc(F)cc3)CC2)c(C)o1 | inactive: 15% |
| CC(=O)c1ccc(NC(=O)c2ccc3c(c2)N(Cc2cccc(Cl)c2)C(=O)c2ccccc2S3=O)cc1 (centres undefined) | inactive: -14.6% |
| COc1ccc(NC(=O)c2cc3c(s2)-c2c(C)cccc2OC3)cc1Cl | inactive: 9.43% |
| CCCN(CCC)c1ccc(C2N=C(N)Nc3nc4ccccc4n32)cc1 (centres undefined) | inactive: -17.4% |
| CCOc1cc(C(=O)Nc2ccc(-c3cn4cccnc4n3)cc2)cc(OCC)c1OCC | inactive: 11% |
| CCNC(=O)C1CCN(S(=O)(=O)c2ccc3c(c2)CCCN3C(C)=O)CC1 | inactive: 18.1% |
| Cn1c(=O)oc2cc(S(=O)(=O)CCC(=O)N3CCN(c4cccc(Cl)c4)CC3)ccc21 | inactive: 29.8% |
| O=C(NCc1ccccc1)c1ccc(NC(=O)N2CC3CCCN3c3ccccc32)cc1 (centres undefined) | inactive: -26.5% |
| Cc1ccc(C)c(N2CCN(S(=O)(=O)c3cc(C(=O)Nc4ccc(Oc5ccccc5)cc4)ccc3F)CC2)c1 | inactive: -6.96% |
| COc1ccc(Br)cc1CNC(=O)c1cnc2sc(N3CCC(C)CC3)nn2c1=O | inactive: 3.3% |
| Cc1ccc(S(=O)(=O)c2nnn3c2nc(NCc2ccc4c(c2)OCO4)c2sccc23)cc1C | inactive: -15.4% |
| CCCCNC(=O)CCCCCn1c(=O)[nH]c2ccccc2c1=O | inactive: -9.44% |
| Cc1ccc2c(c1)c1c(c(=O)n(-c3ccccc3)c(=O)n1CC(=O)NCC1CCCO1)n2C (centres undefined) | inactive: -10.6% |
| COc1cc(Cl)c(NC(=O)c2cc3ccccn3n2)c(OC)c1 | inactive: 22% |
| Cc1cccc(NC(=O)C2CCCN2S(=O)(=O)c2ccc3nc(-c4ccccc4)[nH]c3c2)c1 (centres undefined) | inactive: 6.53% |
| Cc1nc2ccccn2c(=O)c1NC(=O)c1ccc(F)c(F)c1 | inactive: -8% |
| COc1ccc(CCNC(=O)CN2C(=O)COc3ccc(S(=O)(=O)N4CCCC4)cc32)c(OC)c1 | inactive: -19.8% |
| Cc1c(C(=O)NCc2cccc(Cl)c2)sc2nc3n(c(=O)c12)CCCC3 | inactive: -1.03% |
| COc1ccc(-c2cnnn2-c2ccc(NC(=O)c3ccccc3OC)cc2)cc1 | inactive: -22.3% |
| COc1ccc(C2=C(N3CCN(c4cccc(C)c4C)CC3)c3ccccc3C2=O)cc1 | inactive: -3.22% |
| Cc1ccc(NC(=O)CC2Oc3ccccc3NC2=O)cc1C (centres undefined) | inactive: -3.17% |
| CCN(CC)CCCNC(=O)c1ccc(Cn2c(SCc3ccccc3)nc3cccnc32)cc1 | inactive: -7.24% |
| Cn1c(=O)n(Cc2c(F)cccc2Cl)c(=O)c2c1nc1n2CCN1c1ccc(F)cc1 | inactive: 4.8% |
| Cc1c(C(=O)NCc2cccc(Br)c2)oc2ccc3c(c12)C(=O)CC(C)(C)O3 | inactive: -35.2% |

| Compound | activation |
| --- | --- |
| COc1c(C)cccc1C(=O)Nc1ccc(-c2nc3ccccc3s2)c(Cl)c1 | inactive: 6.92% |
| Nc1nn(-c2ccccc2)nc1C(=O)OCc1ccc(Cl)cc1 | inactive: -4.37% |
| COc1ccc(-c2nc3sc(CCNC(=O)C(=O)Nc4cccc(NC(C)=O)c4)c(C)n3n2)cc1 | inactive: 12.6% |
| CC1=C(C(=O)NCc2ccccc2F)C2(CCCCC2)OC1=O | inactive: 2.9% |
| Cc1ccc(CCNC(=O)C2CCCN(c3nnc(C)c4c(C)n(-c5ccccc5)nc34)C2)cc1 (centres undefined) | inactive: -14.5% |
| COc1ccc(-c2cn3nc(N4CCCC(C(=O)NCc5ccc(Cl)cc5)C4)sc3n2)cc1 (centres undefined) | inactive: -2.97% |
| COCCNC(=O)c1nn(-c2ccc(C)cc2)c(=O)c2c1c1ccccc1n2C | inactive: -0.543% |
| O=C(Nc1ccccc1Cl)N1CCC(CN2CCCC2)CC1 | inactive: -16% |
| COc1cccc(-c2nc(CS(=O)(=O)CC(=O)NCc3cccc(Cl)c3)c(C)o2)c1 | inactive: -10.6% |
| Cc1ccc(CSc2ncc(Cl)c(C(=O)Nc3nnc(C)s3)n2)cc1 | inactive: 26.6% |
| CC1=C(c2ccc(F)cc2)S(=O)(=O)N=C1N1CCC(C(=O)NCCc2cccc(C)c2)CC1 | inactive: 2.28% |
| COC(=O)c1c(C)oc2ccc(N(C(=O)c3ccncc3)S(=O)(=O)c3ccc(OC)cc3)cc12 | inactive: 22.9% |
| O=C(Nc1cccc(C(F)(F)F)c1)c1ccc2c(c1)nnn2C1CCCC1 | inactive: 36.6% |
| CCc1ccc(-n2c(=O)c3c4c(sc3n(Cc3ccccc3C#N)c2=O)CCC4)cc1 | inactive: 1.09% |
| COc1ccc(S(=O)(=O)NCCc2nnc3ccc(SCC(=O)Nc4ccccc4C)nn23)cc1 | inactive: -9.02% |
| Cn1cc(CN(C(=O)Nc2ccccc2)C2CCCCC2)c2ccccc21 | inactive: -44.2% |
| COc1ccc(-c2nc3sc(CCNC(=O)c4ccco4)c(C)n3n2)cc1 | inactive: 22.9% |
| CCS(=O)(=O)Nc1ccc(-c2cn3ccsc3n2)cc1 | inactive: -2.6% |
| CN(C)c1ccc(CNS(=O)(=O)c2ccc(-c3cc(C(F)(F)F)on3)s2)cc1 | inactive: -5.55% |
| COc1cc2c(cc1OC)CN(C(=O)Nc1ccccc1)CC2 | inactive: -10% |
| CCCCn1c(=O)c2oc3ccccc3c2n(CC(=O)Nc2ccc(CC)cc2)c1=O | inactive: -10.5% |
| CCn1cc2nc(SCc3cc(C)ccc3C)n(CCc3ccccc3)c(=O)c2n1 | inactive: -3.74% |
| Cc1cccc(N2CCN(S(=O)(=O)c3c(C)nc4scc(C)n4c3=O)CC2)c1C | inactive: -2.99% |
| COc1ccccc1NC(=O)c1ccc(COc2ccc(C)c(C)c2)o1 | inactive: -8.82% |
| CCCCn1c(=N)n(CCCOc2ccc(F)cc2)c2ccccc21 | active: 76% |
| O=c1n(Cc2ccccc2Cl)c2ccccc2c2nc(-c3ccccc3)nn12 | inactive: -6.14% |
| Cc1nn2c(=O)cc(COC(=O)c3ccc(NC(=O)COc4ccc(C)c(C)c4)cc3)nc2s1 | inactive: 19.5% |
